This is one part of the list.
These sequences were tested on PfAP2-HC AP2 domain (GST-tagged) (assay: gcPBM binding intensity (ln(normalized median fluorescence intensity)); higher = stronger DNA binding).
Method in brief: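 GST-tagged P. falciparum DNA-binding domains produced in E. coli were incubated for 1 h on an Agilent 4 × 180k array of primer-extended double-stranded 36-bp intergenic genomic probes with negative controls. Binding intensity is the highest Masliner-normalised natural-log median intensity across replicate spots of either probe orientation, with bound protein detected by Alexa488 anti-GST antibody at 488 nm.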

Sequence	gcPBM binding intensity (ln)
TTTATATATATTTATACACACAAACATAATACTACT [CACACA_site5161]	9.82
TTTTTAATTTTATATACACACATAAAATATATGAAG [CACACA_site3145]	9.5
ATATATTGGAGCACAACACACACAAGTATATATATG [CACACA_site8435]	10.2
AAAAAAAAATACAAAATAGCAATAAATACACAAACG [GTGCAC_negctrl_site707]	10
AAAAAAAAAAAAAACACACAGAACAATATATAAATA [CACACA_site982]	10.1
AAAAAAAAAAAAAAAACATGCACAAATTATAAGTGA [TGCATGCA_site378]	9.6
ACTACATAATACTATTCACACATTTTTTTTTTTTTT [CACACA_site5794]	9.74
TGTTAAAGAGAAAGTACTACACATATTATGTGTTTT [XGTACX_site1435]	9.72
TTTTATAAACAGAGGGGTACGGGAAAAAAAAAAAAA [XGTACX_site1480]	9.53
TTAAAAAAAATTATTTGTACTTAAAAATTTTATATT [XGTACX_site8751]	9.37
AGAAAAAAAAAACACACACACACACCGTCAATATAA [CACACA_site7895]	10.6
TTTTTAAACCATGTTGTGCACATTTTTTTTGGATTT	10
TACATGAATATATAAAGAAAAAAAAAAAAACACACA [XGTACX_negctrl_site350]	9.79
TATAAATTATATATTTGTACGTATATCACATATATA [XGTACX_site7053]	9.57
TATATGTTATATTTAACACACATATAAGGTACATAT [CACACA_site612]	9.83
TTTATTGAATAAAATGCACACGCATGCGTTATTTAT [CACACA_site9154]	9.73
TTCTCATAATTAAATAGTACATATTTTAATAATCAC [XGTACX_site6116]	9.57
TTTGTACCGGCATTTTTTTTTTCTTTTTTTTTCCAA [XGTACX_negctrl_site323]	9.63
TTAGTTATTATAATTTGTACACAAATGGTAAAGTAT [XGTACX_site2343]	9.78
TATTAAAAATGTTAAGTGCAAAAATAAAAATTGTGG [GTGCAC_site9854]	9.79
AAAATTATATATTATAGTACATAAAATTTTGATATA [XGTACX_site994]	9.63
AATAAATAAAAATATATATATATAATATACATGTGT [TGCATGCA_negctrl_site369]	9.9
TTTTATTTCAATCCACAAGGGATAAAATAAAGTTTT [CACACA_negctrl_site699]	9.3

Sequence	gcPBM binding intensity (ln)
GGATGTATTTATATGTGTATGTGTTTGGAAATATGT [XGTACX_negctrl_site99]	9.85
ACATATGAAAAATATGCATGCAAATATTATTTAACA [TGCATGCA_site802]	9.71
TATGTATGTTAGTGTGCACACATAAATATTATATAT [CACACA_site9121]	10.1
TTTTTAAAATTTTTAAAAATATTATGTTAAATATAT [CACACA_negctrl_site415]	9.2
TTGAAAGAAAATAAAATAAAATAAAATAAAATAAAA [CACACA_negctrl_site859]	9.37
AAAAAAAAAAAAATCTCACACATAAAGAGATTATGA [CACACA_site4408]	9.43
ATATATATGTATTTATGTACATATTATTTTTCTTAA [XGTACX_site8169]	9.58
CCGTATATTTTATATAGTACTCATCATATATTTTTA [XGTACX_site5560]	9.61
CAAATTGGGAAATTTTGTACATATAATAAGGATACC [XGTACX_site7728]	9.61
GATAATGAATGATGCACACTAAAAATATTCTACAAC [CACACA_site3622]	10.2
AAACAAAAGATATATACACACTAAACATAAAAAAAA [CACACA_site6161]	9.89
AAAAACTTTTCAAGTAGTACCATATCTACAATAGTA [XGTACX_site8927]	9.5
CCTTTATTAAATAAATGTACATATTTTTGTGTTCTT [XGTACX_site2052]	9.71
AATAAAAATAAAATTGTATATTTTAAATGAAAATAA [CACACA_negctrl_site898]	9.65
GTTGGTAGGATGTATGGTACACGTAGTATTTTTCTT [XGTACX_site2]	10.1
AAACTCTCTTATATTAAACACACATATATATATGTA [CACACA_site8865]	9.73
CATCAAAATGCTACATGTACATATATATAATATATT [XGTACX_site5207]	9.72
AATATATATAAATAAACACACACAAATATAATAAAA [CACACA_site9176]	10.8
GAAATGAACAAGTGGGTGCGTATTAATTACATATTA	10.1
ATAGATAAATTTACGGGTACTAAAATGGAATATGAA [XGTACX_site8637]	9.76
TATTTTACAATAACAATACACACTATAATATATATA [CACACA_site1391]	9.67
TGTGTTCAGTATTGCACACACACAACCAAATAAAAA [CACACA_site379]	10.6
ATTCACATATTATCTTTACACACTATATATAAGTTT [CACACA_site8901]	10

Sequence	gcPBM binding intensity (ln)
TTTTTAATTTTTTTTAAACACACACCGTACATTCAA [CACACA_site7925]	9.91
TATATACTTTATAAATGTACATATAATGTATTATTT [XGTACX_site7313]	9.71
TATATATATACATATTGTACATATTACATGCTATTA [XGTACX_site1184]	9.77
CATTTTCATTTTAAGGTGCATTAATATTTATTTTAA [GTGCAC_site9437]	9.53
TCATTTTAAATATGTGTGCACGTTATAATTTACACA	10.1
TATGAACTTTTGGGGGTGCCTTAAAATGTATATTCT	9.84
ATATATATATAAAGCAGTACACACATTTATTTTAGA [XGTACX_site7226]	9.9
TATCAAAGTAGAAGAGATCGATGTCATATTGTGATG [GTGCAC_negctrl_site42]	9.69
TCCCAATTTATTATGTGTACTTATTATATACATATA [XGTACX_site4033]	9.72
TTATGAATACTTCAAGTGCATTTATTTTATATGACA	9.53
ATTGTGGATATTCTTACACACAAATTTATATATAAA [CACACA_site2601]	9.6
ATATTCTAAATAAAGGGTACACAAAAATAATTAAAG [XGTACX_site5529]	9.7
TATTTGTAATATTATACACACATTATGTATTACAAA [CACACA_site3386]	9.68
TTTTGTATATTATATGTACACACAATAAGTTAATAT [CACACA_site8207]	9.74
ATAATATGAAGAAGCACACTCAATTAAATACAGATA [CACACA_site4690]	9.72
ATACACACATATATGTGTACATATACATATATATAT [XGTACX_site6744]	10.1
AACAAAATAGGGAACACACACATGTCGATATATAAA [CACACA_site7265]	10.1
CACAGACACGGACACACACACATATATATATATATA [CACACA_site5248]	10.4
AAGAATTATTTTTTATGTACTTATATGTCAATTTTC [XGTACX_site6676]	9.68
ATAGAATATTTTATTACACACAGAATAATAAAAAAT [CACACA_site6190]	9.84
CTAAAAGGATGATGAATGCACTATTATTTATATGGA	9.47
TTATTTTTTTTAGCATATACAAATATATATATATAT [GTGCAC_negctrl_site4]	9.56
TTGTGTGAGCAAGTAGTGCATAATATAAATAAAAAA [GTGCAC_site9802]	10

Sequence	gcPBM binding intensity (ln)
TGAAATTTGTTATATGCATGTAAAATATTACGACGA [TGCATGCA_site201]	9.57
CATAAATATTTGTGTTGTACAAATATATATATTTAT [XGTACX_site7363]	9.64
AAAATTGAAGGTAGAAGTACATATTTATTTCAATAA [XGTACX_site8732]	9.63
TATATAATATATTTATGTACGTATTTAAAAATTTAT [XGTACX_site160]	9.51
TGTATTTATTAATGTACACACATGCGTATGTTCGTT [CACACA_site5892]	9.96
GAAGGAAATAAATCAACACACATATATTATATATAT [CACACA_site2188]	9.88
TATGTATAAAAATAATGTACAAAATATATTATATGT [XGTACX_site2794]	9.7
ATCTTAGTTGAAATATAGAATTTATAATAAAAGTTA [GTGCAC_negctrl_site122]	9.38
ATACTATAATAATACACACTCATTAGATATATAAAG [CACACA_site7787]	9.89
AAAAAACAAAAAAATACACACATAAAAAGGTTTTAG [CACACA_site3584]	9.99
AAATATGTCAAATATACACACATAATAAATATAATA [CACACA_site2310]	9.99
TTATAAGATGATTATAAAATCAAATTCATTCTTTTA [CACACA_negctrl_site1338]	9.26
TAAACATAACAAAGGAGTACAAAACTTGATCAGTTC [XGTACX_site3114]	10
TGTACAAATATGTACACACACACATATTTATTTATA [CACACA_site6419]	10.2
GATTTACATTTTGATGAAAATAATAAAATGTGGAAA [TGCATGCA_negctrl_site409]	9.59
ATATTTTATTTTTAAAGTACAAAAGAAAAGAATAAT [XGTACX_site8247]	9.58
AAAAAAAAAGACAAAAGTACAAAGGTTCATAATTTA [XGTACX_site3978]	9.66
AACATCAAAATATGCACACAAACAATTAGCGGTAGT [CACACA_site2521]	9.99
GAAATGGGTAAACATACACACACACCGATATATATA [CACACA_site8610]	10.4
TAACAATTATGCTGGTGTACGTTTGAAATTGGGTAT [XGTACX_site6846]	9.71
